Read counts are not given, so values of variants with three or more changes are uncertain.

Data on 56 variants can be found in the RNAGym collection of RNA variant scans (doi:10.7554/elife.90254).

First the molecules themselves.
B1: LINE1-mini (parent)
chain: GGCAGAGCUCAACACAGCGUGGCAAAGUGGCUGUGGCUAGACUGCC

In this data set the parent is B1. Briefly: self-cleavage, relative activity (ratio to wild type); higher = more cleavage; in vitro, sequencing; the parent is a self-cleaving ribozyme.
Take GGCAGAGCUCAACACAGCGUGGCAAAAUGGCUGUGGAUAGACUGCU [G27A C37A C46U]: the self-cleavage is 0.08. For GGCAGAGCUCAACACAGCGUGGCAAUGUGGCAGUGGCUAGAUUGCC [A26U U32A C42U], the self-cleavage came to 0.14. In the case of GGCAGAGCUCAACACAGCGUGGCAAAUUGGCUGUGGCUAGUCUGCA [G27U A41U C46A], the self-cleavage was 0.58. For the variant GGCAGAGCUCAACACAGCGUGGCAAAAUCGCUGUGGCUAUACUGCC [G27A G29C G40U], the self-cleavage is 0.03. For GGCAGAGCUCAACACAGCGUGGCAAACUGGCUGUGUCUAGACUUCC [G27C G36U G44U], the self-cleavage stood at 0.09. For the variant GGCAGAGCUCAACACAGCGUGGCAAAAUGGCUGUGGCGAGCCUGCC [G27A U38G A41C], the self-cleavage was 0. The figure for GGCAGAGCUCAACACAGCGUGGCAAACUGACUGUGGCUAGACUACA [G27C G30A G44A C46A] is 0.05; for GGCAGAGCUCAACACAGCGUGGCAAACUGGGUGUGCCUAGACGGCC [G27C C31G G36C U43G] it is 0.01; for GGCAGAGCUCAACACAGCGUGGCAAAAUGGCUGAGCCUAGACUGCU [G27A U34A G36C C46U] it is 0.04.

As for GGCAGAGCUCAACACAGCGUGGCAAAAUGGCUGUGGCUGGACUACC [G27A A39G G44A], the self-cleavage amounted to 0.48.

As for GGCAGAGCUCAACACAGCGUGGCAAACUGCCUGUGGCUAGACUGCA [G27C G30C C46A], the self-cleavage amounted to 0.26.

With GGCAGAGCUCAACACAGCGUGGCAAUGUGGCUGUGUCUAGACCGCC [A26U G36U U43C], the self-cleavage worked out at 0.05.

Consider GGCAGAGCUCAACACAGCGUGGCAAACUGGCUGUGGCUAGAUUCCC [G27C C42U G44C], for which the self-cleavage worked out at 0.03. As for GGCAGAGCUCAACACAGCGUGGCAAAAAGGCUGUCGCUAGGCUGCC [G27A U28A G35C A41G], the self-cleavage is 0.06.

With GGCAGAGCUCAACACAGCGUGGCAAAAUGGCUGUGGCAAGACUGCG [G27A U38A C46G], the self-cleavage amounted to 0.32. On to GGCAGAGCUCAACACAGCGUGGCAAACUUGCUGUGGAUAGACUGCC [G27C G29U C37A], for which the self-cleavage was determined as 0.11. Consider GGCAGAGCUCAACACAGCGUGGCAAACUGGUUGUGGCUAGCCUGCU [G27C C31U A41C C46U], for which the self-cleavage was determined as 0.03. With GGCAGAGCUCAACACAGCGUGGCAAAUUGGCUGUGGCUCGAAUGCC [G27U A39C C42A], the self-cleavage stood at 0.08.

As for GGCAGAGCUCAACACAGCGUGGCAAAUUGGCUGUGGCUUAACUGCC [G27U A39U G40A], the self-cleavage was determined as 0.05. On to GGCAGAGCUCAACACAGCGUGGCAAACUGGGUGUGACUAGACUGCC [G27C C31G G36A], for which the self-cleavage turned out to be 0.08. For the variant GGCAGAGCUCAACACAGCGUGGCAAAAUGGCUGUGGGUAGUCUGCC [G27A C37G A41U], the self-cleavage amounted to 0.02.

As for GGCAGAGCUCAACACAGCGUGGCAAAAUGGGUGUGGCUAGACUGCA [G27A C31G C46A], the self-cleavage worked out at 0.03. For the variant GGCAGAGCUCAACACAGCGUGGCAAAAUGCCUGUUGCUAGACUGGC [G27A G30C G35U C45G], the self-cleavage was found to be 0.18. Consider GGCAGAGCUCAACACAGCGUGGCAAACCGGCUGUGGCUAGUCUGCC [G27C U28C A41U], for which the self-cleavage was 0.52. The figure for GGCAGAGCUCAACACAGCGUGGCAAACUGGCAGUGGCUAGAAUGCC [G27C U32A C42A] is 0.09; for GGCAGAGCUCAACACAGCGUGGCAAACUCGCUGUGGCCAGACUGCC [G27C G29C U38C] it is 0.15; for GGCAGAGCUCAACACAGCGUGGCAAACUGGUUGUGGUUAGACUGCG [G27C C31U C37U C46G] it is 0.01. The figure for GGCAGAGCUCAACACAGCGUGGCAAACUGGCUGUGGCUAAACUGCA [G27C G40A C46A] is 0.23; for GGCAGAGCUCAACACAGCGUGGCAAACUGGCUGGGGCUAGAUUGCC [G27C U34G C42U] it is 0.03; for GGCAGAGCUCAACACAGCGUGGCAAUGUGGCUGUGGCUAAACCGCC [A26U G40A U43C] it is 0.06. Consider GGCAGAGCUCAACACAGCGUGGCAAUGUGGCUGUGCCUAGACAGCC [A26U G36C U43A], for which the self-cleavage was determined as 0.02.

On to GGCAGAGCUCAACACAGCGUGGCAAAAUGGCUCUGGCUAGACUGGU [G27A G33C C45G C46U], for which the self-cleavage came out at 0.04. For GGCAGAGCUCAACACAGCGUGGCAAAAUGGAUGUGGCUCGACUGCC [G27A C31A A39C], the self-cleavage came out at 0.01. The figure for GGCAGAGCUCAACACAGCGUGGCAAAAUGGCUGUGGCUAGGCGGCC [G27A A41G U43G] is 0.02; for GGCAGAGCUCAACACAGCGUGGCAAACUGGAUGUGGCUAGUCUGCU [G27C C31A A41U C46U] it is 0.03. Regarding GGCAGAGCUCAACACAGCGUGGCAAAAUGGCUGUGCCUAGACUGAC [G27A G36C C45A], the self-cleavage was 0.03.

Take GGCAGAGCUCAACACAGCGUGGCAAACUGGCUGUGGCUAUAAUGCC [G27C G40U C42A]: the self-cleavage was 0.04. Regarding GGCAGAGCUCAACACAGCGUGGCAAACAGGCUGUGGCUAGACGACC [G27C U28A U43G G44A], the self-cleavage amounted to 0.

On to GGCAGAGCUCAACACAGCGUGGCAAAAUGGCUGUGGCUAAACUGCA [G27A G40A C46A], for which the self-cleavage is 0.03. As for GGCAGAGCUCAACACAGCGUGGCAAUGUGGCUGCGGCGAAACUGCC [A26U U34C U38G G40A], the self-cleavage came to 0.06. Next, GGCAGAGCUCAACACAGCGUGGCAAAAUGUCUGUGGCUAAACUGCC [G27A G30U G40A]: 0.01; GGCAGAGCUCAACACAGCGUGGCAAAAUGGCUCUGGCUACACUGCC [G27A G33C G40C]: 0.05. Turning to GGCAGAGCUCAACACAGCGUGGCAAACUGUCUGUGGCUCGACUGCC [G27C G30U A39C], the self-cleavage is 0.07. The figure for GGCAGAGCUCAACACAGCGUGGCAAUGUGGCUGUGGCUAUCCUGCC [A26U G40U A41C] is 0.05; for GGCAGAGCUCAACACAGCGUGGCAAAAUGGCUGUGGCUACACUGAC [G27A G40C C45A] it is 0.05. Turning to GGCAGAGCUCAACACAGCGUGGCAAUGUGGCUGUGGCGGGACUGCC [A26U U38G A39G], the self-cleavage was determined as 0.02. Take GGCAGAGCUCAACACAGCGUGGCAAUGUGGCUGGGGCAAGAUUGCA [A26U U34G U38A C42U C46A]: the self-cleavage came to 0.01.

Take GGCAGAGCUCAACACAGCGUGGCAAACUGGCUGUGGAUAUACUGUC [G27C C37A G40U C45U]: the self-cleavage stood at 0.03.

Regarding GGCAGAGCUCAACACAGCGUGGCAAUGUGGCUGUGGCUAAACUGCU [A26U G40A C46U], the self-cleavage is 0.03. On to GGCAGAGCUCAACACAGCGUGGCAAAAUGGCUGAGGCUAGACUGUC [G27A U34A C45U], for which the self-cleavage worked out at 0.04.

GGCAGAGCUCAACACAGCGUGGCAAAAUUGCCGUGGCUAGACUGCC [G27A G29U U32C]: the self-cleavage was 0.12.

With GGCAGAGCUCAACACAGCGUGGCAAUGUGGCUUUGGCGAGACAGCC [A26U G33U U38G U43A], the self-cleavage was 0.22. Regarding GGCAGAGCUCAACACAGCGUGGCAAUGUGGCUGUUGAUAGACUGCC [A26U G35U C37A], the self-cleavage was 0.09. For GGCAGAGCUCAACACAGCGUGGCAAUGUGGCUGGGGCUCGACUGCC [A26U U34G A39C], the self-cleavage stood at 0. For the variant GGCAGAGCUCAACACAGCGUGGCAAAAUGGGUGUGGAUAAACUGCC [G27A C31G C37A G40A], the self-cleavage was found to be 0.09. The figure for GGCAGAGCUCAACACAGCGUGGCAAAUUGGAUGUGGCUAGGCUGCC [G27U C31A A41G] is 0.06.
